The target in assay [1] is T1, C-terminally FLAG-tagged Csy1 (Pectobacterium atrosepticum SCRI1043) (UniProt Q6D0W8).
T1 sequence: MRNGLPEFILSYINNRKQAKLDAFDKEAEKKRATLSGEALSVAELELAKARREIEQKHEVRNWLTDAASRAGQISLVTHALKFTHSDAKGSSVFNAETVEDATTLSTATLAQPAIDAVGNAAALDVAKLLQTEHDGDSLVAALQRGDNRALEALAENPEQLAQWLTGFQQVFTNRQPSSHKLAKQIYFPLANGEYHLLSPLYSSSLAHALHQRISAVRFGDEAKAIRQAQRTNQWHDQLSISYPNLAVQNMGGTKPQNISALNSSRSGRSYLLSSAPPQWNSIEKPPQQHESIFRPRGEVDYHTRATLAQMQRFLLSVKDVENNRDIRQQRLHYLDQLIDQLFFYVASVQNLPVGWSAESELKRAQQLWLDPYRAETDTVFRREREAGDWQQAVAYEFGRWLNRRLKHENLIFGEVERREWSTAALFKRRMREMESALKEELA
In words: co-IP; P. atrosepticum WT strain (chromosomal Cas/Csy proteins and crRNAs present); N- or C-terminally FLAG-tagged bait and N-terminally His-tagged prey co-expressed; anti-FLAG agarose; Western blot with anti-His.

Assay [2] addresses T2, N-terminally FLAG-tagged Csy1 (Pectobacterium atrosepticum SCRI1043) (UniProt Q6D0W8).
T2 sequence: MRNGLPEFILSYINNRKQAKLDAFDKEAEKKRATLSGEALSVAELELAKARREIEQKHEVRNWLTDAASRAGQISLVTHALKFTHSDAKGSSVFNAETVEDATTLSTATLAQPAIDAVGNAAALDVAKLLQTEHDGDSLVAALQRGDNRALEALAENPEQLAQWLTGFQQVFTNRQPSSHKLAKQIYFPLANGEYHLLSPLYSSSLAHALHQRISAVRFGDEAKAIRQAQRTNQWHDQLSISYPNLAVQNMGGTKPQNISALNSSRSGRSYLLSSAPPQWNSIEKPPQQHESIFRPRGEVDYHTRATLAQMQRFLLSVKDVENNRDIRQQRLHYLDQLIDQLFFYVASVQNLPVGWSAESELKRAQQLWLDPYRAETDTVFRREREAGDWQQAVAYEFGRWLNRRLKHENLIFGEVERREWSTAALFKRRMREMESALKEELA
The description is as above.

Assay [3] concerns the target T3, N-terminally FLAG-tagged Csy2 (Pectobacterium atrosepticum SCRI1043) (UniProt Q6D0W7).
T3 sequence: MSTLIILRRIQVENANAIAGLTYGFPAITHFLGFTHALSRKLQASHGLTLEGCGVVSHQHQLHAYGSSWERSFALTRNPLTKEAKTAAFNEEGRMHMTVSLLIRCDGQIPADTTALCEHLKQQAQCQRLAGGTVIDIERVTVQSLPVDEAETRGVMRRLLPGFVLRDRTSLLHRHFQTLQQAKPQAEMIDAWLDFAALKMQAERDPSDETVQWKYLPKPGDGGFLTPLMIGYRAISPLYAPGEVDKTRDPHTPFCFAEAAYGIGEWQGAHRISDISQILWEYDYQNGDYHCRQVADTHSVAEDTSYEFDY
The assay is described as above.

The target in assay [4] is T2, N-terminally FLAG-tagged Csy1 (Pectobacterium atrosepticum SCRI1043). The experiment in a line: co-IP; P. atrosepticum Δcas strain (no cas1, cas3, csy1-3, cas6f operon, no mature crRNAs); N- or C-terminally FLAG-tagged bait and N-terminally His-tagged prey co-expressed; anti-FLAG agarose; Western blot with anti-His.
Assay [5] addresses T3, N-terminally FLAG-tagged Csy2 (Pectobacterium atrosepticum SCRI1043). The assay is described as above.
The target of assay [6] is T1, C-terminally FLAG-tagged Csy1 (Pectobacterium atrosepticum SCRI1043). The experiment in a line: condition: only in the Δcas strain (no other Cas or Csy proteins, no mature crRNAs); co-IP; P. atrosepticum Δcas strain (no cas1, cas3, csy1-3, cas6f operon, no mature crRNAs); N- or C-terminally FLAG-tagged bait and N-terminally His-tagged prey co-expressed; anti-FLAG agarose; Western blot with anti-His.

Assay [7] shares this target. In words: co-IP; P. atrosepticum Δcas strain (no cas1, cas3, csy1-3, cas6f operon, no mature crRNAs); N- or C-terminally FLAG-tagged bait and N-terminally His-tagged prey co-expressed; anti-FLAG agarose; Western blot with anti-His.

Results are given in words; binding and its absence hold for the method and conditions named. Binding seen in cells or lysates may run through a third protein. Some binding calls cover weakened binding; strength is not graded here. Sequences can lack the tags named with a protein.

B1: N-terminally His-tagged Csy2 (protein, UniProt Q6D0W7 1-310)
chain: MSTLIILRRIQVENANAIAGLTYGFPAITHFLGFTHALSRKLQASHGLTLEGCGVVSHQHQLHAYGSSWERSFALTRNPLTKEAKTAAFNEEGRMHMTVSLLIRCDGQIPADTTALCEHLKQQAQCQRLAGGTVIDIERVTVQSLPVDEAETRGVMRRLLPGFVLRDRTSLLHRHFQTLQQAKPQAEMIDAWLDFAALKMQAERDPSDETVQWKYLPKPGDGGFLTPLMIGYRAISPLYAPGEVDKTRDPHTPFCFAEAAYGIGEWQGAHRISDISQILWEYDYQNGDYHCRQVADTHSVAEDTSYEFDY
As to B1, the binding result in assay [1] was “binds”; in assay [2], “binds”; in assay [3] it was “no binding”; in assay [4], “binds”; in assay [5] it was “no binding”; in assay [6], “no binding”.

B2: N-terminally His-tagged Csy1 (protein, UniProt Q6D0W8 1-443)
chain: MRNGLPEFILSYINNRKQAKLDAFDKEAEKKRATLSGEALSVAELELAKARREIEQKHEVRNWLTDAASRAGQISLVTHALKFTHSDAKGSSVFNAETVEDATTLSTATLAQPAIDAVGNAAALDVAKLLQTEHDGDSLVAALQRGDNRALEALAENPEQLAQWLTGFQQVFTNRQPSSHKLAKQIYFPLANGEYHLLSPLYSSSLAHALHQRISAVRFGDEAKAIRQAQRTNQWHDQLSISYPNLAVQNMGGTKPQNISALNSSRSGRSYLLSSAPPQWNSIEKPPQQHESIFRPRGEVDYHTRATLAQMQRFLLSVKDVENNRDIRQQRLHYLDQLIDQLFFYVASVQNLPVGWSAESELKRAQQLWLDPYRAETDTVFRREREAGDWQQAVAYEFGRWLNRRLKHENLIFGEVERREWSTAALFKRRMREMESALKEELA
With B2, the binding entry in assay [1] was “no binding”; in assay [2], “no binding”; in assay [3], “binds”; in assay [7], “no binding”; in assay [4], “no binding”; in assay [5] it was “binds”.

These data come from PMC3513311.
